# About 150 (0.041%) of roughly 370,000 compounds were called active. This list was built around the results that the source calls inconclusive (neither active nor inactive); the mix of calls is not that of the screen. The call rests on the fitted dose curve; in most records, active means well fitted inhibition curve with a large enough effect; inconclusive means small, poorly fitted or top-dose-only effect; inactive means flat fitted curve, though single readings scatter. No potency is given beside an inconclusive call; the fits are too rough.
# Biological target: Beta-lactamase (Escherichia coli (strain K12)) (UniProt P00811)
# Assay: qHTS Inhibitors of AmpC Beta-Lactamase (assay with detergent); further: nearly all actives have a fitted effect of over 25% in size
# Conditions: AmpC hydrolysis of nitrocefin, absorbance 480 nm, 0.01% Triton; series mostly up to 114 µM
# Summary of the method: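 AmpC (5.3 nM in the dispensed reagent) in 20 mM phosphate pH 7.0 with 0.01% (detergent screen) or 0.0001% Triton X-100 was preincubated with compounds for 15 min at room temperature. Nitrocefin was then added from an 800 uM solution, and hydrolysis was followed at 480 nm.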
# Potency means the concentration at half of the fitted maximal effect; tags describe the fitted curve by direction and shape.
# UniProt P00811, sequence (P00811 whole entry, looked up): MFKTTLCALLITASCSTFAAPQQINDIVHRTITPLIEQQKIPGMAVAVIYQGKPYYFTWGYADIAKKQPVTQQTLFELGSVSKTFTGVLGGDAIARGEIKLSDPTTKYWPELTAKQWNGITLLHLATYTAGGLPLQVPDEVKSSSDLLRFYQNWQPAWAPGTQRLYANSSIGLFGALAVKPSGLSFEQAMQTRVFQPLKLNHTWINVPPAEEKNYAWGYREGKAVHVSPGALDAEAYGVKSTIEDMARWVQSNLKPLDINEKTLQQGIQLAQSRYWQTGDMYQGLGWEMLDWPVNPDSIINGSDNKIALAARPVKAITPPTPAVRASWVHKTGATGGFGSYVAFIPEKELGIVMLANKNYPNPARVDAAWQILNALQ
row,Compound,Potency
1,O=C(CC1C(=O)NCCN1Cc1ccccc1)NCCCOc1cccnc1 (centres undefined),"inconclusive [inhibitor, partial curve, poor fit]"
2,C[C@H](NC(=O)c1nc[nH]c1C(=O)N[C@@H](CCCCNC(=O)OC(C)(C)C)C(=O)OC(C)(C)C)C(=O)OCc1ccccc1,inactive
3,O=C(NNC(=S)Nc1ccc(F)cc1F)c1ccco1,"inconclusive [inhibitor, full curve]"
4,Cc1c(OCc2ccccc2)c(=O)ccn1Cc1ccc(Cl)cc1,"inconclusive [inhibitor, full curve, poor fit]"
5,Cn1c(NCc2ccc(Cl)cc2)nc2ccccc21,inactive
6,COc1cccc(-n2c(-c3ccoc3)nc3ccccc3c2=O)c1,"inconclusive [inhibitor, full curve]"
7,CO/N=C/c1ccc(N2CCN(C(=O)c3ccc(F)cc3)CC2)c([N+](=O)[O-])c1,"inconclusive [inhibitor, full curve, poor fit]"
8,COC(=O)[C@H](CCSC)NC(=O)NCc1ccccn1,"inconclusive [inhibitor, full curve, poor fit]"
9,Cc1cc(C)nc(-n2ncc3c2CC(c2ccc(C(C)C)cc2)CC3=O)n1 (centres undefined),"inconclusive [inhibitor, partial curve, poor fit]"
10,CCCCCOC(=O)Cn1c(SCC(=O)Nc2ccccc2)nc2c1c(=O)[nH]c(=O)n2C,"inconclusive [inhibitor, full curve, poor fit]"
11,O=C(COC(=O)C1(c2ccccc2)CC1)NNC(=O)c1ccccc1,"inconclusive [inhibitor, full curve, poor fit]"
12,Cc1c(C(=O)N2CCCCC2)sc(NC(=O)C(C)C)c1C#N,"inconclusive [inhibitor, full curve, poor fit]"
13,COc1ccc(NC(=O)c2ccc3c(=O)n4nc(Nc5cccc(Cl)c5C)sc4nc3c2)cc1,inactive
14,CCc1ccc2c(CN3CCC(C(=O)OC)CC3)cc(=O)oc2c1,"inconclusive [inhibitor, partial curve]"
15,C/C(=N\NC(=O)c1cc(C)oc1C)c1ccc2c(c1)OCO2,inactive
16,CNC(=O)C1CCC(Cn2c(=O)c3sccc3n(CC(=O)NCc3ccc(F)cc3)c2=O)CC1 (centres undefined),inactive
17,COc1cc(NC(=O)c2cnc(N)s2)cc(C(=O)Nc2cccc(C(F)(F)F)c2)c1,inactive
18,Cc1c(C)n(C)c2ccc(C(=O)NCCCN3CCN(c4ccc(F)cc4)CC3)cc12,"inconclusive [inhibitor, full curve, poor fit]"
19,Cn1nc(C(=O)OCC(=O)Nc2sccc2C(N)=O)c2ccccc2c1=O,inactive
20,CC(=O)C1=NN(c2ccccc2)C(c2cccs2)N1c1ccc(N(C)C)cc1 (centres undefined),"inconclusive [inhibitor, partial curve, poor fit]"
21,CCOC(=O)NCc1ccc(S(=O)(=O)Nc2ccccc2C)cc1,inactive
22,CCN1C2=C(C(=O)CCC2)C(c2ccc(O)c(Br)c2)C2=C1CCCC2=O,"inconclusive [inhibitor, full curve, poor fit]"

row,Compound,Potency
1,Cc1ccc(C)n1-n1cnc2sc3c(c2c1=O)CCC3,"inconclusive [inhibitor, partial curve, poor fit]"
2,COc1cc(OC)cc(-c2nnc(SCc3ccc(C(=O)O)cc3)o2)c1,"inconclusive [inhibitor, full curve, poor fit]"
3,CC12CCC(=O)N1C(C(=O)Nc1nc(-c3cc(F)ccc3F)cs1)CS2 (centres undefined),"inconclusive [inhibitor, partial curve, poor fit]"
4,O=C1c2ccccc2CN1CCNC(=S)NC1CCCCC1,"inconclusive [inhibitor, full curve, poor fit]"
5,O=C(N/N=C/C=C/c1ccccc1[N+](=O)[O-])c1cc(-c2ccccc2)n[nH]1,"inconclusive [inhibitor, full curve]"
6,COc1ccc(CN2C3CCCC2CC(NC(=O)Nc2cccc(C)c2)C3)cc1 (centres undefined),inactive
7,O=C1CCC(O)CCN1CCSc1ccccc1 (centres undefined),"inconclusive [inhibitor, full curve]"
8,CC1CCC(NC(=O)CCNC(=O)c2ccc(Br)cc2)CC1 (centres undefined),"inconclusive [inhibitor, single point]"
9,Cn1c(SCC(=O)NCc2ccccc2)nnc1-c1ccc(NC(=O)CCc2ccccc2)cc1,inactive
10,Cc1ccc(NC(=O)CSc2nc(NS(=O)(=O)c3ccc(C)cc3)cc(=O)[nH]2)cc1,"inconclusive [inhibitor, full curve, poor fit]"
11,CC(C)(CNC(=O)CCNC(=O)c1ccc(Br)cc1)N1CCOCC1,inactive
12,Cc1cccc(NC(=O)C2CCCN(S(=O)(=O)c3ccc(Br)s3)C2)c1 (centres undefined),inactive
13,CS(=O)(=O)Nc1cccc(C2=NN(C(=O)CCC(=O)O)C(c3cccs3)C2)c1 (centres undefined),inactive
14,COc1ccccc1NC(=O)CSc1nccn1Cc1ccccc1,"inconclusive [inhibitor, single point]"
15,Cc1ccc(C(C(=O)NC2CCCC2)N(C(=O)CCC(=O)Nc2cc(C)on2)c2ccccc2)cc1 (centres undefined),"inconclusive [inhibitor, partial curve, poor fit]"
16,CC(=O)OCC1OC(OCc2cn(C[C@H]3CC[C@H](Cn4cc(COC5OC(COC(C)=O)C(OC(C)=O)C(OC(C)=O)C5OC(C)=O)nn4)O3)nn2)C(OC(C)=O)C(OC(C)=O)C1OC(C)=O (some centres undefined),"inconclusive [inhibitor, full curve, poor fit]"
17,COCCCNC(=O)C1CCN(C(=O)c2oc3cc4sc(N(C)C)nc4cc3c2C)CC1,inactive
18,O=C(NCCc1ccccc1)c1ccc2c(c1)N(Cc1ccccc1)C(=O)CS2=O (centres undefined),"inconclusive [inhibitor, partial curve]"
19,COC(=O)c1cc2ccsc2n1CC(=O)NCC1CCCO1 (centres undefined),"inconclusive [inhibitor, partial curve, poor fit]"
20,COc1ccc(-n2nc(C(=O)NCC(=O)N3CCN(C)CC3)c3ccccc3c2=O)cc1OC,inactive
21,COc1ccc([C@@H]2[C@@H]3C(=O)N(C(C)(C)C)C(=O)[C@@H]3[C@]3(Cc4ccccc4)C(=O)N(c4ccc(C(F)(F)F)cc4)C(=O)N23)cc1,inactive
22,CCN1C(=O)[C@H]2[C@@H](c3ccc(-c4ccc(F)cc4)cc3)N[C@@](CC(C)C)(C(=O)OC)[C@H]2C1=O,inactive

row,Compound,Potency
1,O=C(Nc1cccc2ccccc12)OC1C=CS(=O)(=O)C1 (centres undefined),"inconclusive [inhibitor, full curve, poor fit]"
2,CC(Cc1ccccc1)C(=O)N[C@@H](CO)Cc1ccccc1 (some centres undefined),"inconclusive [inhibitor, partial curve, poor fit]"
3,COC(=O)Cc1c(C)c2ccc(OCC(=O)N(C)C)cc2oc1=O,"inconclusive [inhibitor, full curve]"
4,CC(C)(C)c1ccc(S(=O)(=O)N2CCSC2)cc1,"inconclusive [inhibitor, full curve, poor fit]"
5,COCCNC(=O)CN(C(=O)CCC(=O)Nc1cc(C)on1)c1ccccc1C,"inconclusive [inhibitor, partial curve, poor fit]"
6,O=C(OC1CCOC1=O)c1ccccc1C(=O)c1ccc(Cl)c([N+](=O)[O-])c1 (centres undefined),inactive
7,COc1ccccc1OCCC(=O)OCC(=O)Nc1ccc(Br)cc1F,"inconclusive [inhibitor, full curve, poor fit]"
8,CC1(C)CC(=O)C2=C(C1)Oc1nc3ccccc3cc1C2C(C#N)C#N (centres undefined),"inconclusive [inhibitor, full curve, poor fit]"
9,O=C(NCCC1=CCCCC1)C1CCCN(S(=O)(=O)c2ccccc2)C1 (centres undefined),"inconclusive [inhibitor, single point]"
10,CCOC(=O)Cn1c(=O)oc2cc(S(=O)(=O)N3CCC(C(=O)OCC)CC3)ccc21,inactive
11,CCN(CC(=O)NCc1cccs1)c1nnnn1-c1ccccc1,"inconclusive [inhibitor, full curve, poor fit]"
12,COc1ccc(NC(=O)C(C)Sc2ccccc2)cc1 (centres undefined),inactive
13,CN(CCCOc1ccccc1F)Cc1ccccc1,"inconclusive [inhibitor, full curve]"
14,CCCCN(C(=O)/C=C/c1ccco1)c1c(N)n(CCC)c(=O)[nH]c1=O,"inconclusive [inhibitor, partial curve, poor fit]"
15,CC(C)c1ccc(Nc2nc(NCc3ccco3)nc(N3CCOCC3)n2)cc1,inactive
16,CCc1ccccc1N(CC(=O)NC(C)c1ccccc1)S(C)(=O)=O (centres undefined),"inconclusive [inhibitor, partial curve, poor fit]"
17,CC1CC1C(=O)OCC(=O)c1c(N)n(C)c(=O)n(C)c1=O (centres undefined),"inconclusive [inhibitor, single point]"
18,Fc1ccc(CCNCc2cccc(Cl)c2)cc1,"inconclusive [inhibitor, partial curve, poor fit]"
19,CC(C)Cn1c(N)c(C(=O)COC(=O)/C=C/c2ccccc2)c(=O)n(C)c1=O,"inconclusive [inhibitor, single point]"
20,COC(=O)c1[nH]c2ccc(F)cc2c1NS(=O)(=O)c1ccc(OC)cc1,"inconclusive [inhibitor, partial curve]"
